Laboratory results from the supplement of paper PMC10126150.
Sequences with one replicate were seen in a single cluster, so their values are uncertain.

Tested on: ATP
Assay: switch fluorescence ratio, 500 uM ATP over buffer (Cy3 cluster intensity, sum of 5 cycles each) (fold (ratio)); higher = stronger signal-on switching upon ATP binding; sequences stand for … in TCGTCGGCAGCGTCAGATGTGTATAAGAGACAGTTTTTTTTTTTTTTTTTTTTTTTTT…TC
Settings: aptamer strand: ATP DNA aptamer (quencher-CACCTGGGGGAGTATTGCGGAGGAAGG + anchor), 100 nM annealed; ATP concentration: 500 uM; one replicate
Procedure, shortened: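 The quencher-labelled ATP aptamer, at 100 nM, was annealed to Cy3-labelled switching-strand clusters on a modified Illumina MiSeq flow-cell. The clusters were imaged in selection buffer, then after 15 min with 500 uM ATP at 22 °C, and this buffer/ATP cycle ran five times with NaOH stripping and re-annealing between runs. Per-cluster fluorescence ratios, summed target-cycle over summed buffer-cycle Cy3 intensity, were averaged per switch-domain sequence. Clusters outside 100-1000 RFU were excluded.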
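Also: ATP exposure 15 min at 22 °C before imaging.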

Sequence	switch fluorescence ratio
TGTTCGGAAG	1
TGTTCTAATA	1.05
TGTTCTGAAT	1
TGTTCTGTTA	0.983
TGTTGAAGTA	0.983
TGTTGAATTC	1.01
TGTTGATTGC	1.03
TGTTGCATGC	0.933
TGTTGCGCAT	1.06
TGTTGGAATA	1.01
TGTTGGGCTA	1.07
TGTTGGTAG	0.971
TGTTGGTGTT	1.01
TGTTGTATCG	0.991
TGTTGTTTCC	1.01
TGTTTAACTG	0.96
TGTTTAATTA	0.985
TGTTTCGCGC	1.02
TGTTTCGTCT	1.1
TGTTTGAGTC	1.02
TGTTTGTCAT	0.978
TGTTTTACGG	0.979
TGTTTTATTC	1.04
TGTTTTCCGG	0.98
TGTTTTCGA	0.992
TGTTTTTGAT	0.945

Sequence	switch fluorescence ratio
TTAAAATCTT	0.983
TTAAACCCTT	1.05
TTAAAGAGGT	0.963
TTAAAGCCCG	1.01
TTAAAGGACA	1.04
TTAAAGGGAA	1.02
TTAAATATCA	0.977
TTAAATTTCA	0.985
TTAACCATAG	0.976
TTAACCGAGA	0.986
TTAACCGATG	1.04
TTAACGCTAC	2.46
TTAACGGGG	1.22
TTAACGTAGT	1.01
TTAACTAAAG	1.03
TTAACTCACA	1.21
TTAACTCTTT	0.97
TTAACTTAGA	0.995
TTAAGAAAGA	1.01
TTAAGATACG	1.03
TTAAGCGGTG	1
TTAAGCTTGG	0.992
TTAAGGAGTT	1.03
TTAAGGCGGC	0.978
TTAAGTAGCG	0.935
TTAATAATA	1

Sequence	switch fluorescence ratio
TTAATATTAG	0.98
TTAATCATAA	0.969
TTAATTAAA	0.913
TTAATTAATC	0.985
TTAATTCTTA	1.02
TTACAAATAG	1.15
TTACAAGTCT	0.977
TTACAATACA	1.19
TTACACAGC	1.07
TTACACGCTC	1.07
TTACACTTGC	1.12
TTACAGGCTA	1.01
TTACAGGGCG	1.03
TTACAGTAAA	1.06
TTACATCCGT	1.09
TTACATTGGG	1.03
TTACCCCATC	1.21
TTACCCGTAA	1.59
TTACCGAGGG	1.26
TTACCGGTCG	1.02
TTACCGTTGG	1.05
TTACCTGCTT	1.09
TTACCTGTGG	0.952
TTACCTTGCA	1.08
TTACCTTGTC	1.13
